From article PMC4336329 (PLoS ONE, 2015) come the findings set out here.

Structures are written as SMILES. Screen size: about 310,000 compounds; about 2,200 (0.71%) showed an effect of 50% or more. The effect is printed as a negative number. The list shows a part of the results.

human ether-à-go-go-related gene (hERG) potassium channel, sequence (Q12809 whole entry, looked up): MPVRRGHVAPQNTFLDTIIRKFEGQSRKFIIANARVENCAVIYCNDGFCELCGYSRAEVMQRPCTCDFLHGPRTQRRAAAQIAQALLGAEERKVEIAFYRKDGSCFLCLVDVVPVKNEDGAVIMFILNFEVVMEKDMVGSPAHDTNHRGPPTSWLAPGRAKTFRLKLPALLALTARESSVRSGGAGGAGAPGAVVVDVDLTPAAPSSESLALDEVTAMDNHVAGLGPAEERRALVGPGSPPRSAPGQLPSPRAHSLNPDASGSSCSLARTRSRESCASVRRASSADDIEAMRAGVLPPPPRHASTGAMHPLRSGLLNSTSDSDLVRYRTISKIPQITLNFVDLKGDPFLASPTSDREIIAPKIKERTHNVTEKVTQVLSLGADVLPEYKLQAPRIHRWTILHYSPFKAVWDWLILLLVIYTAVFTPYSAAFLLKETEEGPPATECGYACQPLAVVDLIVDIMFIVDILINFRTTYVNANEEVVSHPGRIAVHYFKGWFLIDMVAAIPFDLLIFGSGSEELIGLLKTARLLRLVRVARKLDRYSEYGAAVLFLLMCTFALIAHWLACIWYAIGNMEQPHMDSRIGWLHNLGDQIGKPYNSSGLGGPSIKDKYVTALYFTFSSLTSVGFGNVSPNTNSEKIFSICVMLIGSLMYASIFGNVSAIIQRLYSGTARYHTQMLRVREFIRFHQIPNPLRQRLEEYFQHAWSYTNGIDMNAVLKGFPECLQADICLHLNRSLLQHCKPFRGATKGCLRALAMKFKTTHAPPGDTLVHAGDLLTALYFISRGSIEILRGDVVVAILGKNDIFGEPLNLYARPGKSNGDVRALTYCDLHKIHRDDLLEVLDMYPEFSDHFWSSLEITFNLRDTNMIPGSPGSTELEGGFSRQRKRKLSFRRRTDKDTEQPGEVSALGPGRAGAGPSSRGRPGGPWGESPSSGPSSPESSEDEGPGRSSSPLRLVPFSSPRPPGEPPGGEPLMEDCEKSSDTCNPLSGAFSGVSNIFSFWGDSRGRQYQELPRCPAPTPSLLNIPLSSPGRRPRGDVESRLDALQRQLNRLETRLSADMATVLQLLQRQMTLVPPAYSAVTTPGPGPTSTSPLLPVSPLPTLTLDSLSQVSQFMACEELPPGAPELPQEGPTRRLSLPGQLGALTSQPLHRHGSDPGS

This assay has as its target human ether-à-go-go-related gene (hERG) potassium channel (human, UniProt Q12809). As to the kind of experiment: primary screen, population patch clamp on CHO cells stably expressing hERG.
On to `Cc1c(C(=O)NCc2cccs2)oc2ccc(S(=O)(=O)N3CCOCC3)cc12`, for which the “hERG current change (%, negative = inhibition) at 1uM” value turned out to be 9.05%.

On to `O=C(O)Cc1ccc(C(=O)c2ccc(Cl)cc2Cl)s1`, for which the “hERG current change (%, negative = inhibition) at 1uM” value is on record as 6.58%.

Regarding `CCOC(=O)/C(C#N)=C1/SC(C)C(=O)N1c1ccc(Br)cc1` (centres unmarked), the “hERG current change (%, negative = inhibition) at 1uM” value is listed as -4.6%. For the compound `Fc1ccc(C2NC(=S)NC3=C2N2CCC3CC2)cc1` (centres unmarked), the “hERG current change (%, negative = inhibition) at 1uM” value was determined as 8%. On to `COc1ccc(Nc2ccnc(Nc3ccc(OC)cc3)n2)cc1`, for which the “hERG current change (%, negative = inhibition) at 1uM” value came to 3.34%. Regarding `C/C(=N\OCC(=O)Nc1cc(C)cc(C)c1)c1ccc2c(c1)OCCO2`, the “hERG current change (%, negative = inhibition) at 1uM” value was 2.87%. Regarding `COc1ccc(-c2nc(N)c(C#N)c(-c3cccnc3)c2C)cc1`, the “hERG current change (%, negative = inhibition) at 1uM” value is 7.35%. Turning to `COc1ccc(C(CNC(=O)c2ccc(S(=O)(=O)Nc3ccc(F)cc3)cc2)N(C)C)cc1` (centres unmarked), the “hERG current change (%, negative = inhibition) at 1uM” value was determined as 7.45%.

Take `Cc1c(C)n(C)c2ccc([N+](=O)[O-])cc12`: the “hERG current change (%, negative = inhibition) at 1uM” value was 6.94%. The result for `CC1CN(Cc2c(O)ccc3c2oc(=O)c2ccccc23)CC(C)O1` (centres unmarked) reads 10.4%. The result for `CCOC(=O)c1ccc(Oc2nc(NC)nc(SC)n2)cc1` reads 8.43%; that for `COCCn1c(COc2ccc(C)cc2)nc2ccccc21`, 11.1%. The result for `NC(=O)CCn1c(C(=O)c2cc(Cl)c(N)c(Cl)c2)c2ccccc2[n+]1[O-]` reads 14.9%. Turning to `CCOC(=O)c1cc(NC(=O)N2CCCCC2)c(C)nc1C`, the “hERG current change (%, negative = inhibition) at 1uM” value is given as 19.2%. Under `Cc1cc(N2CCCC2)nc(N2C3CCC2CC(O)(c2ccc(F)cc2)C3)n1` (centres unmarked) stands -2.31%. Under `COc1cccc(NC(=O)N2CCN(S(C)(=O)=O)CC2)c1` stands 10.4%; under `CC(=O)c1ccc(NC(=O)CCc2nnc3ccc(NCc4ccco4)nn23)cc1`, 6.27%. Consider `CCOC(=O)c1csc(NC(=O)CN2CCN(C)CC2)n1`, for which the “hERG current change (%, negative = inhibition) at 1uM” value is recorded as 13.4%. Consider `N#Cc1c(-c2ccccc2)nc(-c2ccccc2)[nH]c1=O`, for which the “hERG current change (%, negative = inhibition) at 1uM” value amounted to 10.2%. Under `CCc1cccc(C)c1NC(=O)c1cccnc1` stands 15.7%; under `CCOC(=O)Cn1c(-c2ccccn2)nc2ccccc21`, 10.8%. The result for `Cc1ccnc(SCC(=O)c2ccc(Br)cc2)c1C#N` reads 7.03%. Turning to `S=C(NCCc1ccccc1)Nc1ccc(Nc2ccccc2)cc1`, the “hERG current change (%, negative = inhibition) at 1uM” value is listed as 14.5%. The result for `CCOC(=O)COc1ccc(N)cc1CC(NC(C)=O)(C(=O)OCC)C(=O)OCC` reads -69.6%. With `Fc1cc(F)cc(NC(=S)NN2CCOCC2)c1`, the “hERG current change (%, negative = inhibition) at 1uM” value came to 8.64%.

Take `CCN(CC)CCCN(Cc1cc2cc3c(cc2[nH]c1=O)OCO3)C(=S)NCCCN(C)C`: the “hERG current change (%, negative = inhibition) at 1uM” value is reported as 8.05%.

As for `CCCn1c(N)c(N(CCOC)C(=O)c2cc(Cl)nc3ccccc23)c(=O)[nH]c1=O`, the “hERG current change (%, negative = inhibition) at 1uM” value was 22.2%.

On to `O=c1[nH]c(COc2ccccc2)nc2ccccc12`, for which the “hERG current change (%, negative = inhibition) at 1uM” value worked out at 13.4%.

Regarding `CCC(CC)C(=O)c1c[nH]c(C(=O)O)c1`, the “hERG current change (%, negative = inhibition) at 1uM” value is on record as 20.4%. Under `CC(C)=CCOc1ccc2ccc(=O)oc2c1` stands -6.5%; under `COc1ccc(C(CNC(=O)c2oc3cc(C)c(Cl)cc3c2C)N2CCCCC2)cc1` (centres unmarked), 18.4%; under `COc1ccccc1/C=C/C(=O)OCCCN(C)C.Cl`, 18.6%. Under `CC(NS(=O)(=O)c1ccc(Cl)cc1)C(=O)Nc1ccc2c(c1)OCCO2` (centres unmarked) stands -5.22%; under `CN(C)S(=O)(=O)c1cc(NC(=O)C[N+]23CCN(CC2)CC3)ccc1Cl.[Cl-]`, 9.91%. As to `CSCCC(NS(=O)(=O)c1ccccc1F)C(=O)NCc1cccnc1` (centres unmarked), the “hERG current change (%, negative = inhibition) at 1uM” value stood at 11.3%. The result for `CCOc1ccc(Cl)cc1S(=O)(=O)N1CCN(c2ccc(F)cc2)CC1` reads -4.38%. For the compound `COc1cc(C2C(C#N)=C(N)Oc3cc(N(C)C)ccc32)cc2c1OCO2` (centres unmarked), the “hERG current change (%, negative = inhibition) at 1uM” value was determined as 8.6%. Regarding `O=C(NC1CCCCC1)C(c1cccs1)N(C(=O)c1ccccn1)c1ccccc1` (centres unmarked), the “hERG current change (%, negative = inhibition) at 1uM” value amounted to 2.42%. The result for `CSCCC(NC(=O)c1ccoc1C)C(=O)O` (centres unmarked) reads 7.87%. As for `CCCCC(=O)Nc1c2c(nn1-c1ccc([N+](=O)[O-])cc1)CS(=O)(=O)C2`, the “hERG current change (%, negative = inhibition) at 1uM” value was -5.33%. Under `FC(F)(F)c1ccc(Oc2ccc3c(C(F)(F)F)cc(C(F)(F)F)nc3n2)cc1` stands 19.7%; under `COc1ccc(CCNC(=O)C2CC=CCC2C(=O)O)cc1` (centres unmarked), 7.67%. Consider `CN(Cc1cn(-c2ccccc2)nc1-c1ccc(F)cc1)C(=O)CCC(=O)O`, for which the “hERG current change (%, negative = inhibition) at 1uM” value worked out at 13.5%. Consider `CCCCN(C)C(=O)C1CCN(c2ccc(S(=O)(=O)N3CCOCC3)cc2[N+](=O)[O-])CC1`, for which the “hERG current change (%, negative = inhibition) at 1uM” value is -11.8%. In the case of `COc1ccccc1Nc1nc(N)nc(CN2CC(C)CC(C)C2)n1` (centres unmarked), the “hERG current change (%, negative = inhibition) at 1uM” value was -70.8%.

For `COc1ccccc1NC(=O)Nc1ccccc1SC`, the “hERG current change (%, negative = inhibition) at 1uM” value came out at 2.65%. With `CC(Sc1nccn1C)C(=O)Nc1ccc(Cl)cn1` (centres unmarked), the “hERG current change (%, negative = inhibition) at 1uM” value is on record as 4.07%.

As for `CCOP(=O)(OCC)c1nc(-c2ccc(Cl)cc2Cl)oc1N1CCOCC1`, the “hERG current change (%, negative = inhibition) at 1uM” value is listed as 1.4%.

As for `Cc1ccc(S(=O)(=O)N2CCN(C(=O)c3sccc3C)CC2)cc1`, the “hERG current change (%, negative = inhibition) at 1uM” value is on record as 7.79%.

`CCCNC(=O)C1(CC2CC(c3ccccc3)=NO2)CCN(C(=O)Cc2ccc(F)cc2)CC1` (centres unmarked): the “hERG current change (%, negative = inhibition) at 1uM” value is -9.55%. Regarding `COC(=O)C(Cc1ccc(O)cc1)NC(=O)C(C)Oc1ccccc1` (centres unmarked), the “hERG current change (%, negative = inhibition) at 1uM” value came to 19.1%. The result for `Cc1ccc2c(c1)c1nnc(SCC(=O)NC3CC3)nc1n2C` reads 12.1%. On to `CCNc1nc(SC)nc(N(C#N)CC(=O)OC)n1`, for which the “hERG current change (%, negative = inhibition) at 1uM” value is reported as 11.7%. Under `N#Cc1nc(-c2ccco2)oc1NCCc1ccccc1` stands 10.2%; under `COc1cc(Nc2nc(-c3ccccc3)c3cc(C)ccc3n2)cc(OC)c1OC`, 1.28%.

Turning to `O=C(Nc1ccccc1OC(=O)N1CCCCC1)N1CCCCC1`, the “hERG current change (%, negative = inhibition) at 1uM” value is recorded as 11%. As to `Cc1cccc(N/C=C/c2onc(C)c2[N+](=O)[O-])c1`, the “hERG current change (%, negative = inhibition) at 1uM” value came to 13.9%. The result for `CCOC(=O)N1CCC2(CC1)C(C#N)=C(N)Oc1n[nH]c(C)c12` reads 6.24%; that for `COc1ccccc1-c1cc(C(=O)Nc2cccnc2Cl)no1`, 16.9%.
